# Results: article PMC4336329 (PLoS ONE, 2015)
# Out of some 310,000 compounds screened, about 2,200 (0.71%) showed an effect of 50% or more. The effect is printed as a negative number. This is one part of the list.
# Target: human ether-à-go-go-related gene (hERG) potassium channel (human, UniProt Q12809)
# Assay: primary screen, population patch clamp on CHO cells stably expressing hERG
# Chain of human ether-à-go-go-related gene (hERG) potassium channel (Q12809 whole entry, looked up): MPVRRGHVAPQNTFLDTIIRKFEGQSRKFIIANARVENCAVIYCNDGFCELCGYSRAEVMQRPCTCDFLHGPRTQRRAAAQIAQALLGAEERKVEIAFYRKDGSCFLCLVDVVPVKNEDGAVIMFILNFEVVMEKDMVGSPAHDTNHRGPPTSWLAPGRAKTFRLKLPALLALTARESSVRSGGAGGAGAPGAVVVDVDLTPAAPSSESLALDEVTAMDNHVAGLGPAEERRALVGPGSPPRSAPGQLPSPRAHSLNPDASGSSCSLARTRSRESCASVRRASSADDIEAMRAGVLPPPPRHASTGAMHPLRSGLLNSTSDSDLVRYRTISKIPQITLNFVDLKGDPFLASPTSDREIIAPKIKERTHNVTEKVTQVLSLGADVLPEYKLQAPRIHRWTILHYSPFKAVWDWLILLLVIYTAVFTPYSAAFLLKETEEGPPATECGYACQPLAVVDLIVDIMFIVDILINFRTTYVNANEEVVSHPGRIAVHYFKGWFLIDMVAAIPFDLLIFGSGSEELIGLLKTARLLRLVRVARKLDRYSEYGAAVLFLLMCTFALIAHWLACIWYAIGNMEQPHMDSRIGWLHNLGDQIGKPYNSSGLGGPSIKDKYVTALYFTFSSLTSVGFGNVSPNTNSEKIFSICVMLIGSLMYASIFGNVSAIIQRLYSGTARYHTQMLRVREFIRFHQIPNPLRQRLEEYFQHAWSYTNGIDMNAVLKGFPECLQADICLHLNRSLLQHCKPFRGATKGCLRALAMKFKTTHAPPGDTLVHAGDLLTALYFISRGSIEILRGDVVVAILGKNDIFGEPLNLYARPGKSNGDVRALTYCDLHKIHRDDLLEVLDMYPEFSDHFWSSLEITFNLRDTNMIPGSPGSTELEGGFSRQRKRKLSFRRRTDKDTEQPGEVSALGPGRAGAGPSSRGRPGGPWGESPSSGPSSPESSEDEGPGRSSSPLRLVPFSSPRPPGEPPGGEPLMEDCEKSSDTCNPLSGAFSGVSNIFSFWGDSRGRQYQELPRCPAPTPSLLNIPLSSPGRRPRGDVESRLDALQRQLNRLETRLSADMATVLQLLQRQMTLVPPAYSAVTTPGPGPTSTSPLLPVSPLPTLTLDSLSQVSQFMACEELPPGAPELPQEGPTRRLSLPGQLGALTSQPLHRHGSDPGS
row,SMILES,"hERG current change (%, negative = inhibition) at 1uM [%]"
1,Cc1ccc(CCNC(=O)C2CCC(=O)N2Cc2cccnc2)cc1 (stereo not shown),15.9
2,Cn1c(=O)c(C(N)=S)cn(-c2ccccc2)c1=O,10.4
3,Cc1ccc(-c2cc(Cc3ccccc3)c(=O)[nH]n2)cc1,16.8
4,CCCCCc1c(C)nc(NCc2ccccc2)[nH]c1=O,-3.53
5,CC(=O)NCCN=C(C)c1sc2ccccc2c1O,19
6,Cc1oc(=O)c(NC(=O)c2ccc(Cl)cc2)cc1C(=O)c1ccccc1,13.8
7,Cc1ccc2[nH]c(=O)c(C(c3nnnn3C3CCCC3)N3CCCc4ccccc43)cc2c1 (stereo not shown),-2.97
8,CCNC(=S)Nc1ccccc1-c1ccccc1,8.17
9,CCC(=O)c1ccc(OCC(=O)OCC(=O)Nc2cccc(S(=O)(=O)N3CCCC3)c2)cc1,9.49
10,O=C(c1ccc(CS(=O)c2ccccc2Cl)o1)N1CCCCCC1 (stereo not shown),23.3
11,COC(=O)[C@@]12CCCCN1[C@H](c1ccc(-c3ccc(OC)cc3)cc1)[C@@H]1C(=O)N(C)C(=O)[C@@H]12.O=C(O)C(F)(F)F,8.54
12,Cc1cc(C(F)(F)F)cc(NNC(=O)NC(=O)c2ccc(Cl)cc2)n1,17.4
13,S=c1[nH]c2cc(-c3ccccc3)ccc2o1,15.5
14,Cc1ccc(C[n+]2c(-c3ccc(C)cc3)cc(-c3ccc(C)cc3)cc2-c2ccc(C)cc2)cc1.[O-][Cl+3]([O-])([O-])[O-],-61.7
15,Cc1cc(C)c(C)c(S(=O)(=O)N[C@@H](C)C(=O)OC(C)C(=O)NC(N)=O)c1C (stereo partly shown),1.09
16,Cc1cccc(NC(=O)C2CCCN(S(=O)(=O)c3cccc4nsnc34)C2)c1 (stereo not shown),-0.475
17,CCC(C)N(C(=O)CSc1nnc(C)n1C)C1CCS(=O)(=O)C1 (stereo not shown),-1.72
18,Cc1cc(C(=O)COC(=O)c2ccc(N)c([N+](=O)[O-])c2)c(C)n1Cc1ccc2c(c1)OCO2,-2.33
19,S=c1[nH]nc(CSc2nc3ccccc3s2)n1C1CCCCC1,11
20,CC(C)(C)CC(=O)O/N=C(\N)c1ccccn1,5.7
21,Cc1cc(OCCN2CCCC2)cc(C(C)C)c1.O=C(O)C(=O)O,7.79
22,COc1ccc(C2(C(=O)NC3CCCCC3)CCOCC2)cc1OC,12.7

row,SMILES,"hERG current change (%, negative = inhibition) at 1uM [%]"
1,CC(=O)Nc1cccc(NC(=O)Nc2cccc3ccccc23)c1,12.8
2,CC(C)(C)OC(=O)N1CCC(C(=O)NNC(=O)c2ccc(Cl)cc2Cl)CC1,13.1
3,Cc1cccc(NC(=O)c2sc(C)nc2C)c1,-10.3
4,O=C(CCN1CCN(Cc2ccccc2)CC1)Nc1ccccc1Cl,1.86
5,Cc1cc(C2=NNC(=Nc3ccc(S(=O)(=O)N4CCOCC4)cc3)SC2)c(C)n1CC1CCCO1 (stereo not shown),15.4
6,CCOc1ccc(NC(=O)C2CCN(C(=O)C3CC(=O)N(c4ccc(C)cc4)C3)CC2)cc1 (stereo not shown),7.43
7,CCCc1cc(=O)oc2cc(C)cc(OCC(=O)Nc3ccc(S(N)(=O)=O)cc3)c12,13.2
8,O=C(CSc1cccc[n+]1[O-])c1cc(Cl)ccc1Cl,4.18
9,CCOc1ccc(NS(=O)(=O)c2ccc3c(c2)N(C(C)=O)CCO3)cc1,17
10,CC(C)NC(=O)CCS(=O)(=O)c1cccc2nonc12,5.68
11,Cc1cccc(N(CC(=O)NC2CCCC2)C(=O)c2c(C)noc2C)c1,22.7
12,Cc1ccc(Oc2coc3cc(OC(=O)c4cccs4)ccc3c2=O)cc1,0.74
13,CCOc1ccc(-n2c(=O)cc(N3CCN(c4ccccc4)CC3)[nH]c2=O)cc1,11.9
14,O=C(Nc1nnc(-c2ccccc2)o1)c1cc(-c2cccs2)nc2ccccc12,5.77
15,O=C(NCc1ccc(C(F)(F)F)cc1)C1CC(c2ccccc2[N+](=O)[O-])=NO1 (stereo not shown),-4.52
16,FC(F)Oc1ccccc1NC(=S)Nc1cccc(Cl)c1Cl,12.3
17,COc1ccc(O)c(/C=N/NC(=O)c2ccc(OCc3cccc(Br)c3)cc2)c1,6.08
18,COc1ccc(C2Nc3ccccc3C(=O)N2Cc2ccco2)cc1COc1ccc(F)cc1 (stereo not shown),-3.21
19,FC(F)(F)c1ccc(NC(=S)NCc2ccccc2)cc1,13.5
20,COC(=O)[C@H]1Cc2cnoc2C[C@]1(C)C(=O)O,8.42
21,CC(=O)Nc1ccccc1C(=O)N1CCN(c2cccc(C)c2C)CC1,10.5
22,CN(C)C(=S)c1ccc(N(C)C)cc1,12.8

row,SMILES,"hERG current change (%, negative = inhibition) at 1uM [%]"
1,CCOc1cc(/C=N/NC(=O)CSc2nncn2C)ccc1OCc1ccccc1,3.73
2,CCOc1ccc(CCNC(=O)Cc2ccc(NC(=O)C3=C(C)OCCS3)cc2)cc1,13.2
3,O=C(Nc1cccc(-c2nn[nH]n2)c1)c1ccc(Cl)s1,15.5
4,Cc1nc(N2CCN(c3ccc(Cl)cc3)CC2)[nH]c(=O)c1C,15.4
5,Cc1ccc(NC(=O)Cn2nnc3ccccc3c2=O)cc1C,15.9
6,COc1ccc(OC)c(CN(CCCN2CCOCC2)S(=O)(=O)c2ccc(NC(C)=O)cc2)c1,9.53
7,CCCCOC(=O)CSc1nc2ccccc2o1,8.88
8,COc1ccc(S(=O)(=O)N2CC(=O)Nc3ccccc32)cc1,5.56
9,COc1ccccc1C(=O)Nc1sc2c(c1C(=O)NCc1ccco1)CCCC2,11
10,CCCn1c(SCC(=O)Nc2ccccc2OC)nnc1-c1ccco1,-18.2
11,Cc1ccc(C2C=C(c3ccccc3OC(F)F)Nc3ncnn32)cc1 (stereo not shown),6.54
12,Cc1ccc(/C=N/NC(=O)c2ccoc2C)s1,9.86
13,N/C(=N\OC(=O)COc1ccc(Br)cc1Cl)c1ccccn1,10.7
14,Cn1c(SCC(=O)NCC2CCCO2)nnc1-c1ccc(S(=O)(=O)N2CCCC2)cc1 (stereo not shown),15.1
15,Cn1c(=O)n(C)c2cc(S(=O)(=O)O)ccc21,3.24
16,CCNc1nc(NC(C)C)nc(OCCOC(=O)Nc2ccccc2)n1,7.72
17,CCOC(=O)c1c(C)[nH]c(C)c1C(=O)COC(=O)CNC(=O)c1ccc(OCC)cc1,5.18
18,CC(C)(Cc1cccc(CC(C)(C)C(=O)O)c1)C(=O)O,16.6
19,CC(C)[C@H](NC(=O)C1CCN(S(=O)(=O)c2ccc(F)cc2)CC1)C(=O)NCc1ccco1,10.4
20,CCOC(=O)c1sc(=S)n(CC)c1NC(=O)c1ccccc1C,11.5
21,CC1CN(C(=O)/C=C/c2ccc(SC(F)F)cc2)CC(C)O1 (stereo not shown),-22.2
22,CCCC[n+]1ccn(-c2nc3ccccc3nc2[N-]S(=O)(=O)c2cccs2)c1,7.46

row,SMILES,"hERG current change (%, negative = inhibition) at 1uM [%]"
1,C=C(C)COc1ccc2c(C)c(CCC(=O)NC3CC3)c(=O)oc2c1,4.96
2,CC(C)C(=O)NN1c2ccccc2CCc2ccccc21,6.18
3,COc1cccc(/C=N/Nc2ncc(C)c(=O)[nH]2)c1OC,10.1
4,Cc1cc(NC(=O)c2ccc(NC(=O)C3CC3)cc2)no1,17.1
5,Cc1cc(-n2cc(Br)c(=O)[nH]c2=O)nc(-c2ccccc2)n1,5.85
6,NS(=O)(=O)c1ccc(O)c(NC(=O)c2ccc([N+](=O)[O-])cc2)c1,5.12
7,COc1ccc(-c2csc3ncnc(N4CCN(S(=O)(=O)c5cccc(Br)c5)CC4)c23)cc1,17.4
8,O=C(CSc1ncc(S(=O)(=O)c2ccccc2)c(=O)[nH]1)Nc1ccccc1Cl,-1.4
9,COc1ccc(OC)c(S(=O)(=O)n2nnc3ccccc32)c1,-3.46
10,Cc1ccc(NC(=O)CN2C(=O)NC(C)(c3ccc(Cl)cc3)C2=O)c(Br)c1 (stereo not shown),10.1
11,CSc1ccc(CN(C)Cc2nc3cc(C(F)(F)F)ccc3c(=O)[nH]2)cc1,17
12,Cc1nc(Cl)c(Cl)n1CCOc1ccccc1,9.6
13,CCOC(=O)CSc1nnc(CNC(=O)c2ccc(S(=O)(=O)N3CCCC3)cc2)n1C,10.8
14,CCCC(=O)NCCCc1nc2ccccc2n1C,9.05
15,COC(=O)N=Nc1c(O)[nH]c2ccc(Br)cc12,6.7
16,COC(=O)c1cc2ccsc2n1Cc1nc(-c2ccc(Cl)cc2)oc1C,10.5
17,NC(=O)COC(=O)C1CSC2(c3ccc(F)cc3)CCC(=O)N12 (stereo not shown),18.4
18,O=C(NCCc1c[nH]c2ccccc12)c1cc2ccccc2oc1=O,8.75
19,Clc1ccc(OCc2nn3c(C4CCCCC4)nnc3s2)cc1,11.5
20,O=[N+]([O-])c1cccc(-c2csc(N/N=C/c3cccc(O)c3)n2)c1,2.64
21,Cc1c(C)c2ccc(OCC(=O)c3ccccc3)cc2oc1=O,23.3
22,CC(=O)Nc1ccc(-c2ccc(NC(C)=O)c(O)c2)cc1O,13
